The text below walks through data of PMC4242493.

This is one part of the list. The list includes weakly bound sequences.

This test has as its target MaxL homodimer (UniProt P61244). As to the kind of experiment: universal protein-binding microarray (PBM). Particulars: PBS-based mixture, 10 nM His-tagged protein dimer, 2% milk, 200 ng/uL BSA, 50 ng/uL salmon testes DNA, 0.02% TX-100; detection with Alexa 488 anti-His …; high values mean tight binding; most listed sequences are background and not binding sites; double strand, one strand shown.
Sequence of UniProt P61244 (P61244 whole entry): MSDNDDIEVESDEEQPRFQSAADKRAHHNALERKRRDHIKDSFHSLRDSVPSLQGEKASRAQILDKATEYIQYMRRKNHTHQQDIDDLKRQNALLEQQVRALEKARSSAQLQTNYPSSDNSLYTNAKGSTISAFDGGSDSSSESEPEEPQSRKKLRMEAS
On to CGCTGGAG, for which the binding signal (normalized occupancy) was 0.0679.
To AGTCTTTC belongs 0.07.
For the sequence ACATCGGT, the binding signal (normalized occupancy) was 0.0702.
As to CAGGGCTC, the binding signal (normalized occupancy) came to 0.069.
For GGCGGATA, the binding signal (normalized occupancy) was 0.0736.
Regarding GGGGCGTA, the binding signal (normalized occupancy) amounted to 0.0761.
Turning to TAGCTTGA, the binding signal (normalized occupancy) was 0.0684.
For CCACTGCC, the binding signal (normalized occupancy) stood at 0.073.
As for CCGAATGA, the binding signal (normalized occupancy) is 0.0745.
As to GTAGGCGA, the binding signal (normalized occupancy) came to 0.0743.
Regarding CTCGCCTC, the binding signal (normalized occupancy) is 0.0748.
As to AGCAAGAA, the binding signal (normalized occupancy) was found to be 0.0748.
Turning to ATATGAAA, the binding signal (normalized occupancy) came out at 0.0805.
To AGCGCTCC belongs 0.0661; to AGGGTTAA, 0.0772; to CCGCAGTA, 0.0693.
Turning to TCAAAGGA, the binding signal (normalized occupancy) is 0.0841.
The result for TGGGGGAA reads 0.0784; that for ACGACATC, 0.078.
Take ACCCGTCG: the binding signal (normalized occupancy) is 0.0731.
On to ACAGATCA, for which the binding signal (normalized occupancy) was found to be 0.0837.
To GTACAAGA belongs 0.0806.
The result for ATATGATA reads 0.0913; that for ACACTAGC, 0.0744; that for CGTCTGGC, 0.0669.
The result for GGGGAAGA reads 0.0844; that for GTAAATTA, 0.0804; that for AATTGCTC, 0.0686.
Take CTTATCTC: the binding signal (normalized occupancy) was found to be 0.0761.
For GACAGATC, the binding signal (normalized occupancy) came to 0.0746.
Regarding ATCCAGAC, the binding signal (normalized occupancy) was found to be 0.073.
Turning to TCCCAAAA, the binding signal (normalized occupancy) was 0.0719.
With GAGGCGGA, the binding signal (normalized occupancy) worked out at 0.0677.
CTTGATCA: the binding signal (normalized occupancy) is 0.0784.
For GACCTGCC, the binding signal (normalized occupancy) turned out to be 0.0741.
For AGAAACTA, the binding signal (normalized occupancy) is 0.0746.
For the sequence TGAAGGAA, the binding signal (normalized occupancy) was determined as 0.0747.
ATTACTCA: the binding signal (normalized occupancy) came to 0.0751.
For CGCGGATA, the binding signal (normalized occupancy) turned out to be 0.0752.
With ACACCGAC, the binding signal (normalized occupancy) is 0.0774.
The result for GCAGGTGA reads 0.0851.
As for CCTCCTAG, the binding signal (normalized occupancy) worked out at 0.076.
Regarding AAGTCAGG, the binding signal (normalized occupancy) came out at 0.0719.
Regarding CCAAGCTC, the binding signal (normalized occupancy) turned out to be 0.0702.
Turning to CTTGTCAC, the binding signal (normalized occupancy) worked out at 0.0759.
As to TATGAGCA, the binding signal (normalized occupancy) is 0.0821.
Consider AGTGATAT, for which the binding signal (normalized occupancy) amounted to 0.0824.
The result for CGAAGTGA reads 0.0702; that for ACACGTGG, 0.852; that for AATAGCCT, 0.0775.
As for AAGTGCAG, the binding signal (normalized occupancy) is 0.0763.
For the sequence GGTAGAAC, the binding signal (normalized occupancy) was 0.071.
To GCGACTAA belongs 0.0635.
To ACGGCTAT belongs 0.0724; to ATAAGGGA, 0.0753; to AACTTGCT, 0.074.
The result for AGGGTAGC reads 0.0747; that for ATGGAGCC, 0.0767.
For the sequence CTGTAGAC, the binding signal (normalized occupancy) turned out to be 0.0726.
For the sequence GACAACCC, the binding signal (normalized occupancy) came out at 0.076.
Turning to CAGTCTCA, the binding signal (normalized occupancy) amounted to 0.0706.
The result for CCTATCCA reads 0.0806; that for CTGGGCTA, 0.0669; that for AAAGAAGC, 0.0715.
AGTAGCCA: the binding signal (normalized occupancy) came out at 0.0714.
To CAACATGA belongs 0.0936; to AGCTGCGA, 0.066; to ATATAATC, 0.0793.
For the sequence CTGACAGA, the binding signal (normalized occupancy) came to 0.072.
Regarding GGGGAGAC, the binding signal (normalized occupancy) was found to be 0.0733.
As for CCGACAGC, the binding signal (normalized occupancy) was found to be 0.0716.
AAATGTTA: the binding signal (normalized occupancy) is 0.0782.
Turning to CTTCCACC, the binding signal (normalized occupancy) was 0.0766.
Consider CGTACACA, for which the binding signal (normalized occupancy) came to 0.0813.
The result for ATCTTGTC reads 0.0785; that for GACCCCGC, 0.0742; that for GAAGCGCC, 0.0668.
For ATTTTAGA, the binding signal (normalized occupancy) was 0.0828.
As for GGTAGCGA, the binding signal (normalized occupancy) came to 0.0736.
Take AAAGTTCT: the binding signal (normalized occupancy) was 0.0721.
In the case of CATTGGCC, the binding signal (normalized occupancy) was determined as 0.0721.
As for ACGATGTG, the binding signal (normalized occupancy) was 0.0859.
For GTTTCAGA, the binding signal (normalized occupancy) was determined as 0.071.
To ACGCAAAG belongs 0.0808; to CGGTAAAC, 0.076.
Consider CGGCCGCC, for which the binding signal (normalized occupancy) was 0.0686.
AAGAGCCA: the binding signal (normalized occupancy) worked out at 0.0768.
With CATTCTCC, the binding signal (normalized occupancy) worked out at 0.0814.
To ATTCCATG belongs 0.0878; to CGAACACC, 0.0747; to CATGTGAG, 0.128.
Consider ACGCCAGG, for which the binding signal (normalized occupancy) is 0.0747.
For TCTCCCCA, the binding signal (normalized occupancy) was 0.0783.
For GTTTTTCA, the binding signal (normalized occupancy) was 0.0726.
With ACGGTCAG, the binding signal (normalized occupancy) turned out to be 0.073.
Consider GCGCTGTA, for which the binding signal (normalized occupancy) amounted to 0.077.
For GAGGCACA, the binding signal (normalized occupancy) was 0.0779.
As to AGATCGCG, the binding signal (normalized occupancy) is 0.0698.
On to ATTTAGAC, for which the binding signal (normalized occupancy) was found to be 0.0724.
GCTGTGGA: the binding signal (normalized occupancy) was 0.0728.
In the case of CAAGTTCA, the binding signal (normalized occupancy) amounted to 0.0741.
For the sequence TCCCGTCA, the binding signal (normalized occupancy) came to 0.0716.
For CGTTGGGA, the binding signal (normalized occupancy) worked out at 0.0779.
As to GGTCTCAA, the binding signal (normalized occupancy) came to 0.0745.
To CAATAACA belongs 0.0785.
AAACGCGT: the binding signal (normalized occupancy) stood at 0.08.
Take CGCTAAAG: the binding signal (normalized occupancy) worked out at 0.0673.
On to AGTAGTGA, for which the binding signal (normalized occupancy) is 0.0756.
In the case of ATCGTGAA, the binding signal (normalized occupancy) stood at 0.0769.
